From PubChem BioAssay AID1745853 (National Center for Advancing Translational Sciences (NCATS), 2022)
The other results are listed elsewhere or left out. The main result of the screen is listed elsewhere. These columns were measured beside it and carry no call.

Key:
Experiment in all cases: Primary Screen for Target Class Profiling of Small Molecule Inhibitors of Methyltransferases
[1] = target: Glycine N-methyltransferase (Homo sapiens) (UniProt Q14749); details: purified enzyme, MTase-Glo SAH luminescence; measured here: GNMT inhibition; at 40 µM; stronger effect = lower value
Summary of the method: (§1)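 Each enzyme was assayed with SAM and its substrate. SAH formation detected by MTase-Glo luminescence; single-point 40 uM screen[…].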

[2] = target: Guanidinoacetate N-methyltransferase (Homo sapiens) (UniProt Q14353); details: purified enzyme, MTase-Glo SAH luminescence; measured here: GAMT inhibition; at 40 µM; stronger effect = lower value
Summary of the method: as §1

[3] = target: Histamine N-methyltransferase (Homo sapiens) (UniProt P50135); details: purified enzyme, MTase-Glo SAH luminescence; measured here: HNMT inhibition; at 40 µM; stronger effect = lower value
Summary of the method: as §1

[4] = target: Nicotinamide N-methyltransferase (Homo sapiens) (UniProt P40261); details: purified enzyme, MTase-Glo SAH luminescence; measured here: NNMT inhibition; at 40 µM; stronger effect = lower value
Summary of the method: as §1

[5] = target: Phenylethanolamine N-methyltransferase (Homo sapiens) (UniProt P11086); details: purified enzyme, MTase-Glo SAH luminescence; measured here: PNMT inhibition; at 40 µM; stronger effect = lower value
Summary of the method: as §1
On the % scale 0 is the no-effect control and ±100 the full control effect.

| SMILES | activity change, negative = inhibition [1] [%] | activity change, negative = inhibition [2] [%] | activity change, negative = inhibition [3] [%] | activity change, negative = inhibition [4] [%] | activity change, negative = inhibition [5] [%] |
| --- | --- | --- | --- | --- | --- |
| CCN(Cc1noc(C2CCC2)n1)C(=O)c1cc(C(C)C)n2ncnc2n1 | -2.26 | -1.72 | 2.2 | -6.91 | -3.66 |
| COc1ccc2cc3n(c2c1)CC(C)(C(=O)NC1CCCCCC1)N(CC1CCCO1)C3=O (stereo not given) | 4.96 | 0 | 5.22 | -2.75 | 3.06 |
| CCc1nc2c(c(NCCn3nc(C)c(CC)c3C)n1)CCNCC2 | -1.55 | -1.15 | -2.44 | -10.7 | -8.74 |
| CCC(C)NC(=O)c1ccc2c(=O)n(C(C)C)c3nn(CC(=O)c4ccc(C)cc4C)c(=O)n3c2c1 (stereo not given) | 2.76 | 0 | 3.76 | -1.99 | 3.35 |
| O=S(=O)(O)c1ccc2cc(N=Nc3cc(S(=O)(=O)O)c4cccnc4c3O)ccc2c1 | -24.2 | -13.7 | -12.3 | -23.7 | -15.2 |
| COc1ccc(N2C(=O)c3nc4ccccc4n3CC2(C)C(=O)NC2CCCCCC2)cc1 (stereo not given) | 1.98 | 0 | 4.67 | 1.62 | -1.34 |
| CCCC1CCN(C(=O)c2coc(COc3ccc4ccc(OC)cc4c3)n2)C1 (stereo not given) | -7.07 | -0.093 | -1.72 | -9.52 | -5.93 |
| Cc1ccccc1NC(=O)c1cc2n(n1)CC(c1ccc(Cl)cc1)OC2 (stereo not given) | -7.87 | -4.22 | -2.75 | -4.36 | 8.33 |
| OC[C@H]1C[C@@H](NCc2ccc(F)cc2)[C@H](O)[C@@H]1O | -8.86 | -8.47 | -5.93 | -9.06 | -16.7 |
| Cc1nn(C(=O)CCCC(=O)N2CCC(CCOc3ccc(F)cc3)C2)c2ccccc12 (stereo not given) | -5.27 | -10.5 | -6.36 | -14.8 | -10.4 |
| CCN1CCN(c2ccc(C(=O)N3CCCC(c4ccccc4)CC3)cn2)CC1 (stereo not given) | -2.83 | -4.56 | -7.07 | -11.7 | -1.49 |
| COCCCNC(=O)c1cc2n(n1)CC(C)(C(=O)NC1CCCC1)N(C)C2=O (stereo not given) | 6.08 | 0 | 2.94 | 7.2 | 2.24 |
| COc1cccc(C2c3cccn3-c3sc4c(c3CN2C(=O)Nc2ccccc2Br)CCCC4)c1 (stereo not given) | -4.02 | 0 | -0.688 | -6.41 | 2.89 |
| CC1(C)CC[C@]2(C(=O)O[C@@H]3O[C@H](CO)[C@@H](O)[C@H](O)[C@H]3O)CC[C@]3(C)C(=CCC4[C@@]5(C)C[C@@H](O)[C@H](O)C(C)(C)C5[C@H](O)C[C@]43C)[C@@H]2[C@@H]1O (stereo not given in full) | 0 | -1.27 | -5.57 | -12.9 | -1.08 |
| COc1ccc(-c2nc(-c3ccc(S(=O)(=O)N4CCCCC4)cc3)no2)cc1 | -0.984 | 0 | 5.28 | 5.8 | 3.33 |
| COc1ccc(N2C(=O)c3cc4ccccc4n3CC2(C)C(=O)NC2CCCC2)cc1 (stereo not given) | -2.91 | 2.93 | 0.246 | -1.69 | 2.48 |
| COCCNC(=O)c1cc2n(n1)CC(C)(C(=O)NCCC(C)C)N(C)C2=O (stereo not given) | 2.57 | 2.43 | 7.18 | 4.71 | 3.4 |

| SMILES | activity change, negative = inhibition [1] [%] | activity change, negative = inhibition [2] [%] | activity change, negative = inhibition [3] [%] | activity change, negative = inhibition [4] [%] | activity change, negative = inhibition [5] [%] |
| --- | --- | --- | --- | --- | --- |
| CCc1cc2c(cc3n2CC(C)(C(=O)NC2CCCCC2)N(c2ccc(Cl)cc2)C3=O)s1 (stereo not given) | -2.65 | 7.72 | -0.29 | -0.327 | -1.56 |
| CCOC(=O)C1CCCN(C(=O)C2CCc3nnc(C4CC4)n32)C1 (stereo not given) | -4.56 | -3.61 | -0.98 | -7.7 | 3.9 |
| COc1ccccc1CN1C(=O)c2nc3ccccc3n2CC1(C)C(=O)NC1CCCC1 (stereo not given) | -3.41 | 2.98 | -3.15 | -0.97 | -6.55 |
| COc1cccc(N2C(=O)c3cc4occc4n3CC2(C)C(=O)NC2CCCCCCC2)c1 (stereo not given) | -5.05 | 0.198 | -0.273 | -7.73 | -1.16 |
| COc1cc(CCO)ccc1O[C@@H]1O[C@H](CO)[C@@H](O)[C@H](O)[C@H]1O | -0.309 | -7.27 | 4.11 | -13.4 | -7.12 |
| O=C(NCc1ccncc1)C1CN(Cc2ccccn2)CC12CCOCC2 (stereo not given) | -5.09 | -8.73 | -2.62 | -12.1 | -18 |
| C=C1CCC2C(C)(C)CC(O)CC2(C)C1CCC(C)CC(=O)O (stereo not given) | -10.2 | -7.43 | 4.67 | -22.1 | -11.5 |
| COc1cc2c(Oc3ccc4[nH]c(C)cc4c3F)ncnc2cc1OCCCN1CCCC1 | -5.47 | 5.02 | -38.1 | -19.1 | -3.74 |
| C=CC(C)(O)CC/C=C(/C)C(=O)OC1C(OC2OCC(OC3OC(CO)C(O)C(O)C3O)C(OC3OCC(O)C(OC4OC(C)C(O)C(O)C4O)C3O)C2O)COC(OC(=O)C23CCC(C)(C)CC2C2=CCC4C5(C)CCC(OC6OC(CO)C(OC7OC(CO)C(O)C(OC8OCC(O)C(O)C8O)C7O)C(O)C6O)C(C)(C)C5CCC4(C)C2(C)CC3O)C1O (stereo not given) | 0 | 19.3 | 6.43 | 6.42 | 6.44 |
| CCCc1nc(C(=O)N2CC[C@H](CO)[C@H](O)C2)cs1 | -3.07 | -8.34 | -1.68 | -11.2 | -6.46 |
| Cc1ccc2[nH]c(=O)c(C3=NN(C(=O)CCC(=O)O)C(c4ccc(Br)cc4)C3)c(-c3ccccc3)c2c1 (stereo not given) | -38.5 | 15.6 | 1.94 | -24.1 | 2.72 |
| COC(=O)c1ncn2c1C(=O)N(Cc1ccc3c(c1)OCO3)C(C)(C(=O)NC1CCCCC1)C2 (stereo not given) | 2.2 | 0 | 3.08 | -2.11 | 3.94 |
| Cc1cc(C(=O)NCC2(COc3ccc(S(C)(=O)=O)cc3)C[C@@H](O)[C@@H](O)C2)n(C)n1 (stereo not given in full) | -3.07 | 3.46 | 0.367 | -2.56 | 14.5 |
| COc1ccc(N2CCN(C(=O)CCCc3nnc4n5nc(C)nc5c5ccccc5n34)CC2)cc1 | -19.6 | 0.093 | 10.7 | 15.8 | 3.58 |
| C/C=C(\C)C(=O)O[C@H]1[C@H](O)[C@]2(COC(C)=O)[C@H](O)C[C@]3(C)C(=CCC4[C@@]5(C)CC[C@H](O[C@@H]6O[C@H](C(=O)O)[C@@H](O[C@@H]7O[C@H](CO)[C@@H](O)[C@H](O)[C@H]7O)[C@H](O)[C@H]6O[C@@H]6O[C@H](CO)[C@@H](O)[C@H](O)[C@H]6O)[C@](C)(CO)C5CC[C@]43C)[C@@H]2CC1(C)C (stereo not given in full) | -5.97 | 12.9 | -1.45 | 1.02 | 9.64 |
| O=C(OCc1ccccc1)N1CCC2(CC1)C(=O)NN=C2C1CC1 | -11.3 | -7.64 | -1.74 | -21.9 | -11.9 |
| CCOc1ccc(N2C(=O)CSc3c(c4ccccc4n3C)C2C(=O)NCc2ccccc2OC)cc1 (stereo not given) | 11.7 | 0 | 2.86 | 8.7 | 11.4 |
